Laboratory results published in the supplement of paper PMC12582362.
Counter-ions that a name gives are not always drawn. Hit rate of the full screen: of about 1,500 compounds, about 30 (2%) showed activity.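 The calls were made as follows: active = robust z-score below -2; a few such results were not called.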 This is one part of the list.

Each compound was assayed on optoTopBP1 Flp-In 293 T-REx (HEK293) cells (assay: light-induced TopBP1 condensate (nuclear foci) count, plate-normalised robust z-score vs non-control wells; higher = more TopBP1 condensates (negative = condensation inhibitor), active = hit call of the paper). Conditions: 10 µM; incubation time 2 h.

Row | Structure (SMILES) | light-induced TopBP1 condensate (z-score)
1 | CC(=O)Nc1ccc(C(=O)O)cc1 [Acedoben] | inactive: -0.512
2 | CCCCC[C@H](O)/C=C/[C@H]1[C@H](O)CC(=O)[C@@H]1CCCCCCC(=O)O [Alprostadil] | inactive: 1.42
3 | CCN1CCC[C@H]1CNC(=O)c1c(O)c(Cl)cc(Cl)c1OC [Raclopride] | inactive: -0.245
4 | CC[C@@H]([C@H](C)O)n1ncn(-c2ccc(N3CCN(c4ccc(OC[C@@H]5CO[C@@](Cn6cncn6)(c6ccc(F)cc6F)C5)cc4)CC3)cc2)c1=O [Posaconazole] | active: -2.52
5 | CN1CCC[C@@H]1CCO[C@](C)(c1ccccc1)c1ccc(Cl)cc1 [Clemastine fumarate] | inactive: -1.27
6 | CCOc1ccc(NC(C)=O)cc1 [Phenacetin] | inactive: 0.209
7 | CC(C(=O)O)c1ccc(C(=O)c2cccs2)cc1 (stereo not drawn) [Suprofen] | inactive: -0.434
8 | COc1cc2ncnc(Nc3ccc(F)c(Cl)c3)c2cc1OCCCN1CCOCC1 [Gefitinib] | inactive: 2.6
9 | COc1ccc(C(=O)c2ccccc2O)c(O)c1 [Dioxybenzone] | inactive: -0.671
10 | CC(C)(C)NC[C@H](O)COc1ccccc1C1CCCC1 [Penbutolol sulfate] | inactive: -0.793
11 | Nc1nc2[nH]cc(CCc3ccc(C(=O)N[C@@H](CCC(=O)O)C(=O)O)cc3)c2c(=O)[nH]1 [Pemetrexed disodium] | inactive: -1.43
12 | CCN1CCN(Cc2ccc(Nc3ncc(F)c(-c4cc(F)c5nc(C)n(C(C)C)c5c4)n3)nc2)CC1 [Abemaciclib] | inactive: -0.486
13 | COc1ccc(CN2CCN(C(c3ccc(F)cc3)c3ccc(F)cc3)CC2)c(OC)c1OC [Lomerizine hydrochloride] | inactive: -0.988
14 | CCc1ccc(C(=O)C(C)CN2CCCCC2)cc1 (stereo not drawn) [Eperisone HCl] | inactive: 1.18
15 | CC(=O)Nc1cccc(O)c1 [Metacetamol] | inactive: -0.0278
16 | Cc1cnc(C(=O)O)c[n+]1[O-] [Acipimox] | inactive: -0.457
17 | O=C(O)[C@H]1/C(=C/CO)O[C@@H]2CC(=O)N21 [Clavulanate potassium salt] | inactive: -0.0843
18 | O=C(OCCOCCO)c1ccccc1Nc1cccc(C(F)(F)F)c1 [Etofenamate] | inactive: -0.564
19 | Nc1ccc(S(=O)(=O)Nc2ccccn2)cc1 [Sulfapyridine] | inactive: 1.16
20 | Nc1ccn([C@@H]2O[C@H](CO)[C@@H](O)[C@@H]2O)c(=O)n1 [Cytarabine] | inactive: -1.9
21 | COc1ccnc(C[S+]([O-])c2nc3cc(OC(F)F)ccc3[nH]2)c1OC (stereo not drawn) [Pantoprazole sodium] | inactive: -0.769
22 | C[C@@H]1C[C@H]2[C@@H]3C[C@H](F)C4=CC(=O)C=C[C@]4(C)[C@@]3(F)[C@@H](O)C[C@]2(C)[C@@]1(O)C(=O)COC(=O)C(C)(C)C [Flumethasone pivalate] | inactive: -0.352
23 | CCOc1ccccc1OC(c1ccccc1)C1CNCCO1 (stereo not drawn) [Reboxetine mesylate] | inactive: -0.228

Row | Structure (SMILES) | light-induced TopBP1 condensate (z-score)
24 | O=c1[nH]cnc2c1ncn2[C@@H]1O[C@H](CO)[C@@H](O)[C@H]1O [Inosine] | inactive: -0.394
25 | CN(C)CCCN1c2ccccc2Sc2ccc(Cl)cc21 [Chlorpromazine hydrochloride] | inactive: 1.46
26 | CC(=O)[C@H]1CC[C@H]2[C@@H]3CC=C4C[C@@H](O)CC[C@]4(C)[C@H]3CC[C@]12C [Pregnenolone] | inactive: -0.358
27 | COc1ccc(CC2c3cc(OC)c(OC)cc3CC[N+]2(C)CCC(=O)OCCCCCOC(=O)CC[N+]2(C)CCc3cc(OC)c(OC)cc3C2Cc2ccc(OC)c(OC)c2)cc1OC (stereo not drawn) [Atracurium besylate] | inactive: -0.907
28 | CC(C(=O)O)c1ccc2c(c1)CC(=O)c1ccccc1S2 (stereo not drawn) [Zaltoprofen] | inactive: -0.369
29 | CCN(CCO)CCCC(C)Nc1ccnc2cc(Cl)ccc12 (stereo not drawn) [Hydroxychloroquine sulfate] | inactive: -1.68
30 | CCOC(=O)NNc1nncc2ccccc12 [Todralazine hydrochloride] | inactive: 0.699
31 | CCCCN1CCCCC1C(=O)Nc1c(C)cccc1C (stereo not drawn) [Bupivacaine hydrochloride] | inactive: -1.34
32 | CC(COc1ccccc1)NC(C)C(O)c1ccc(O)cc1 (stereo not drawn) [Isoxsuprine hydrochloride] | inactive: -0.14
33 | COc1cc(NC(C)CCCN)c2ncccc2c1 (stereo not drawn) [Primaquine diphosphate] | inactive: -1.07
34 | CCCCC1(COC(=O)CCC(=O)O)C(=O)N(c2ccccc2)N(c2ccccc2)C1=O [Suxibuzone] | inactive: 0.837
35 | CCCCNc1c(C(=O)OCC)c(C)nc2c1cnn2CC [Tracazolate hydrochloride] | inactive: 0.939
36 | COc1cc(-c2ccc(=O)[nH]n2)ccc1OC(F)F [Zardaverine] | inactive: 1.3
37 | CC/C(=C(/CC)c1ccc(O)cc1)c1ccc(O)cc1 [Diethylstilbestrol] | inactive: -0.692
38 | CC1=C(/C=C/C(C)=C/C=C/C(C)=C\C(=O)O)C(C)(C)CCC1 [Isotretinoin] | inactive: -1.24
39 | CSc1ccc2c(c1)N(CCC1CCCCN1C)c1ccccc1S2 (stereo not drawn) [Thioridazine hydrochloride] | inactive: -0.811
40 | Cc1cc(-c2ccccc2)nnc1NCCN1CCOCC1 [Minaprine dihydrochloride] | inactive: 0.767
41 | NC(N)=Nc1nc(CSCC/C(N)=N/S(N)(=O)=O)cs1 [Famotidine] | inactive: 0.697
42 | CN(C)[C@@H]1C(O)=C(C(N)=O)C(=O)[C@@]2(O)C(O)=C3C(=O)c4c(O)cccc4[C@@](C)(O)[C@H]3[C@H](O)[C@@H]12 [Oxytetracycline dihydrate] | inactive: -0.703
43 | Cc1cc(NS(=O)(=O)c2ccc(N)cc2)nc(C)n1 [Sulfisomidine] | inactive: -0.583
44 | Cc1ccsc1/C=C/C1=NCCCN1C [Morantel tartrate] | inactive: 0.144
45 | CN(C)c1ccc(O)c2c1C[C@H]1C[C@H]3[C@H](N(C)C)C(O)=C(C(N)=O)C(=O)[C@@]3(O)C(O)=C1C2=O [Minocycline hydrochloride] | inactive: -0.51
46 | CCCSS/C(CCO)=C(/C)N(C=O)Cc1cnc(C)nc1N [Prosultiamine] | inactive: -0.237

Row | Structure (SMILES) | light-induced TopBP1 condensate (z-score)
47 | Nc1nc(NC2CC2)c2ncn([C@H]3C=C[C@@H](CO)C3)c2n1 [Abacavir Sulfate] | inactive: -0.798
48 | CCN(CC)CCNc1ccc(CO)c2sc3ccccc3c(=O)c12 [Hycanthone] | inactive: -0.598
49 | CCOc1ccc2nc3cc(N)ccc3c(N)c2c1 [Ethacridine lactate] | inactive: 0.0605
50 | CNC(C)CCC=C(C)C (stereo not drawn) [Isometheptene mucate] | inactive: 0.384
51 | O=C(COc1ccc(Cl)cc1)N1CCN(Cc2ccc3c(c2)OCO3)CC1 [Fipexide hydrochloride] | inactive: -0.019
52 | CN(Cc1cnc2nc(N)nc(N)c2n1)c1ccc(C(=O)N[C@@H](CCC(=O)O)C(=O)O)cc1 (racemic) [Amethopterin (R,S)] | inactive: 1.13
53 | CC(C)(C)CC(C)(C)c1ccc(O)c(Cc2ccc(Cl)cc2Cl)c1 [Clofoctol] | inactive: 0.817
54 | CCOC(=O)c1ccc(N)cc1 [Benzocaine] | inactive: 0.302
55 | OC(CCCN1CCCCC1)(c1ccccc1)c1ccccc1 [Diphenidol hydrochloride] | inactive: -1.33
56 | CCN(CC)CCOC(=O)C(c1ccccc1)c1ccccc1 [Adiphenine hydrochloride] | inactive: 1.26
57 | C[C@]12CC[C@@H]3c4ccc(OS(=O)(=O)O)cc4CC[C@H]3[C@@H]1CCC2=O [Estropipate] | inactive: 0.596
58 | Cc1ccc(S(=O)(=O)NC(=O)NN2CCCCCC2)cc1 [Tolazamide] | inactive: -1.32
59 | COc1cccc(OC)c1C(=O)N[C@@H]1C(=O)N2[C@@H]1SC(C)(C)[C@@H]2C(=O)O [Methicillin sodium] | inactive: 0.167
60 | C=CCSCC1Nc2cc(Cl)c(S(N)(=O)=O)cc2S(=O)(=O)N1 (stereo not drawn) [Althiazide] | inactive: 0.873
61 | c1ccc(CN(CC2=NCCN2)c2ccccc2)cc1 [Antazoline hydrochloride] | inactive: -0.424
62 | CN(C)CC/C=C1/c2ccccc2COc2ccc(CC(=O)O)cc21 [Olopatadine hydrochloride] | inactive: 0.52
63 | CC(C(=O)O)c1ccc(C(=O)c2ccccc2)s1 (stereo not drawn) [Tiaprofenic acid] | inactive: 0.311
64 | NC(=O)NS(=O)(=O)c1ccc(N)cc1 [Sulfacarbamide] | inactive: 0.466
65 | CC(=O)N(CC(O)CN(C(C)=O)c1c(I)c(C(=O)NCC(O)CO)c(I)c(C(=O)NCC(O)CO)c1I)c1c(I)c(C(=O)NCC(O)CO)c(I)c(C(=O)NCC(O)CO)c1I (stereo not drawn) [Iodixanol] | inactive: 0.289
66 | C#C[C@]1(O)CC[C@H]2[C@@H]3CCC4=CC(=O)CC[C@@H]4[C@H]3CC[C@@]21CC [Norgestrel-(-)-D] | inactive: -0.564
67 | N=C(N)NCCN1CCCCCCC1 [Guanethidine sulfate] | inactive: -0.799
68 | CC1(C)[C@@H](OC(=O)CCC(=O)O)CC[C@]2(C)[C@H]3C(=O)C=C4[C@@H]5C[C@@](C)(C(=O)O)CC[C@]5(C)CC[C@@]4(C)[C@]3(C)CC[C@@H]12 [Carbenoxolone disodium salt] | inactive: -0.148
